According to the supplement of paper PMC3334620:
Over roughly 33,000 sequences, “E-score (-0.5 to 0.5)” has its median near -0.056; the highest 2% begin near 0.38. This is one part of the list.

What follows are sequences tested against Stb4 (UniProt P50104) (assay: PBM E-score (8-mer binding enrichment) (E-score (-0.5 to 0.5)); higher = stronger / more preferred TF binding; most listed sequences are background and not binding sites). Conditions: protein concentration: 200 nM; construct: GST-DNA-binding domain.
In short: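 Universal all-10-mer Agilent arrays, double-stranded by primer extension on fresh or once-stripped slides, were probed with about 100-200 nM GST-tagged yeast transcription factors made by PURExpress. Fluorescent anti-GST detected bound protein, and masliner normalised the scans. E-scores from the Universal PBM Analysis Suite were given to each ungapped eight-base word pooled with its reverse complement.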
With ACAGAACG the “PBM E-score” value was -0.11.
With ACGCTGCA the “PBM E-score” value was -0.139.
For CCGAGAAC, the “PBM E-score” value was 0.414.
AAGCTCAT was tested, and the “PBM E-score” value was -0.164.
In the case of GCTCTCAC, the “PBM E-score” value is reported as -0.151.
For CCTCACCC, the “PBM E-score” value was 0.0962.
AGGATCCA was tested, and the “PBM E-score” value was -0.0863.
In the case of AACCTCTT, the “PBM E-score” value is reported as 0.068.
In the case of AACGCTAC, the “PBM E-score” value is reported as -0.0404.
GCAAATCA was tested, and the “PBM E-score” value was -0.158.
ATATCGTC was tested, and the “PBM E-score” value was -0.0532.
In the case of TAACACAA, the “PBM E-score” value is reported as -0.0123.
With AGACAAGA the “PBM E-score” value was 0.106.
With CGGTAGAC the “PBM E-score” value was 0.205.
In the case of AACGTCCT, the “PBM E-score” value is reported as -0.116.
In the case of AATTGCGA, the “PBM E-score” value is reported as -0.127.
In the case of AATATCAA, the “PBM E-score” value is reported as -0.0948.
AGCTTGGA was tested, and the “PBM E-score” value was -0.315.
With ACAGGTCC the “PBM E-score” value was -0.0369.
GAAAGTTC was tested, and the “PBM E-score” value was 0.101.
GATCGAAA was tested, and the “PBM E-score” value was 0.0885.
For GAAGATTC, the “PBM E-score” value was 0.114.
In the case of AAGAGTTC, the “PBM E-score” value is reported as -0.128.
For TCCTTCGA, the “PBM E-score” value was -0.0707.
With ATAAGGTA the “PBM E-score” value was 0.0815.
For GCTGCCGA, the “PBM E-score” value was 0.378.
With CCGCCTAA the “PBM E-score” value was 0.0083.
In the case of GTACTCTA, the “PBM E-score” value is reported as -0.193.
In the case of GAACACTC, the “PBM E-score” value is reported as 0.0957.
CTTTCGCC was tested, and the “PBM E-score” value was -0.0565.
For ACAACGCT, the “PBM E-score” value was -0.279.
With AGTAGGTA the “PBM E-score” value was -0.153.
In the case of CAATGTAC, the “PBM E-score” value is reported as -0.0745.
GGATCAAC was tested, and the “PBM E-score” value was 0.0775.
With GATGACTA the “PBM E-score” value was -0.0894.
ATACTAGC was tested, and the “PBM E-score” value was 0.00069.
In the case of AACGTTAA, the “PBM E-score” value is reported as 0.123.
For ATTAGGAA, the “PBM E-score” value was 0.00373.
For AGCGGACT, the “PBM E-score” value was -0.152.
GATTTCCC was tested, and the “PBM E-score” value was 0.109.
With CGGCTAAC the “PBM E-score” value was 0.331.
For GATAGAAC, the “PBM E-score” value was 0.0122.
ATTGCTGA was tested, and the “PBM E-score” value was -0.24.
AGATCTTC was tested, and the “PBM E-score” value was -0.0558.
ATCCGGAC was tested, and the “PBM E-score” value was 0.336.
AAGAACGC was tested, and the “PBM E-score” value was -0.0267.
With CTCGAGCC the “PBM E-score” value was 0.0289.
For ATTGGTTG, the “PBM E-score” value was -0.166.
In the case of ATAAAAAT, the “PBM E-score” value is reported as -0.0765.
CTGTAATA was tested, and the “PBM E-score” value was 0.0594.
CCCGGGGA was tested, and the “PBM E-score” value was 0.247.
With ATTTACAC the “PBM E-score” value was -0.0341.
With CCCCATTA the “PBM E-score” value was -0.358.
In the case of GAATGTAC, the “PBM E-score” value is reported as 0.0294.
For CCGGCCAG, the “PBM E-score” value was 0.161.
With CGGAGATC the “PBM E-score” value was 0.205.
For CAACTCTA, the “PBM E-score” value was -0.00307.
In the case of ACCTTATG, the “PBM E-score” value is reported as -0.213.
For GTCAATAA, the “PBM E-score” value was 0.0146.
For TATGATGA, the “PBM E-score” value was -0.0204.
For CGCTACAA, the “PBM E-score” value was 0.032.
In the case of AAGTAATG, the “PBM E-score” value is reported as 0.0876.
With CGGACGGC the “PBM E-score” value was 0.214.
For AATGCTAG, the “PBM E-score” value was 0.0387.
For AGTTCGCC, the “PBM E-score” value was 0.085.
ATGTGGCA was tested, and the “PBM E-score” value was -0.101.
AAGCGATA was tested, and the “PBM E-score” value was -0.28.
In the case of CCGGGCCA, the “PBM E-score” value is reported as 0.18.
GTAAAGCA was tested, and the “PBM E-score” value was -0.144.
For ATAAATAC, the “PBM E-score” value was 0.0693.
CGAAACGA was tested, and the “PBM E-score” value was -0.00013.
In the case of AAGTTTTG, the “PBM E-score” value is reported as 0.0245.
With GCGGGCGA the “PBM E-score” value was 0.109.
In the case of AGATCTAC, the “PBM E-score” value is reported as -0.179.
In the case of ATAGATGC, the “PBM E-score” value is reported as -0.165.
With CAGTCGGA the “PBM E-score” value was 0.316.
For CTGAGTGC, the “PBM E-score” value was -0.083.
CTACTAAA was tested, and the “PBM E-score” value was -0.112.
In the case of CTTGGTTA, the “PBM E-score” value is reported as -0.139.
For GACCCGTA, the “PBM E-score” value was 0.0406.
With AACTCCCG the “PBM E-score” value was 0.356.
In the case of TTACTCAA, the “PBM E-score” value is reported as -0.00049.
CATGCCAA was tested, and the “PBM E-score” value was -0.257.
With ATGAAAGA the “PBM E-score” value was -0.0806.
With ACTCGGCC the “PBM E-score” value was 0.232.
For CTTCCCCC, the “PBM E-score” value was -0.213.
With ATGCATAC the “PBM E-score” value was -0.194.
For AAATAATC, the “PBM E-score” value was -0.101.
In the case of ACGCGTTC, the “PBM E-score” value is reported as -0.00022.
For CGACTCCG, the “PBM E-score” value was 0.211.
In the case of TGGGCAAA, the “PBM E-score” value is reported as -0.168.
In the case of AAAGCGCA, the “PBM E-score” value is reported as -0.0833.
For CTAAAATA, the “PBM E-score” value was -0.119.
In the case of GAGCCATC, the “PBM E-score” value is reported as -0.16.
CCACGAAA was tested, and the “PBM E-score” value was -0.181.
For CCCTCCCG, the “PBM E-score” value was 0.277.
In the case of ACTTGATA, the “PBM E-score” value is reported as -0.136.
With CTGCGCCC the “PBM E-score” value was -0.166.
With CGATTGCG the “PBM E-score” value was 0.136.
CCTTTACC was tested, and the “PBM E-score” value was 0.0566.
In the case of AGCCATAG, the “PBM E-score” value is reported as -0.316.
With AGTGGTGA the “PBM E-score” value was -0.0529.
With CCGGACGC the “PBM E-score” value was 0.202.
With ACAAAACA the “PBM E-score” value was -0.105.
In the case of ATGTAGTG, the “PBM E-score” value is reported as -0.175.
GTTATAAA was tested, and the “PBM E-score” value was -0.0264.
In the case of CTCACAGA, the “PBM E-score” value is reported as -0.146.
In the case of GTTAGTAA, the “PBM E-score” value is reported as -0.198.
In the case of AAGACTTG, the “PBM E-score” value is reported as -0.135.
With AGTTGCAG the “PBM E-score” value was -0.148.
With ACGCGCGT the “PBM E-score” value was -0.0483.
AAAGGGCT was tested, and the “PBM E-score” value was -0.241.
For AGCCTCGG, the “PBM E-score” value was 0.381.
AGATGTCA was tested, and the “PBM E-score” value was -0.0419.
For ACGTACAC, the “PBM E-score” value was -0.174.
In the case of TATTATAA, the “PBM E-score” value is reported as -0.07.
In the case of AAGCTCCC, the “PBM E-score” value is reported as 0.0273.
In the case of GGTTATGA, the “PBM E-score” value is reported as 0.141.
In the case of CAGGCTCA, the “PBM E-score” value is reported as -0.176.
With GGTGATCA the “PBM E-score” value was -0.114.
With GGCTAAGA the “PBM E-score” value was 0.0718.
In the case of AACCAGTT, the “PBM E-score” value is reported as -0.0414.
In the case of AGCGCCGG, the “PBM E-score” value is reported as 0.24.
In the case of AGACATTG, the “PBM E-score” value is reported as -0.154.
For ACGGAGTA, the “PBM E-score” value was 0.136.
For TACTGAAA, the “PBM E-score” value was 0.0265.
For GCCCCGAC, the “PBM E-score” value was 0.203.
For CGTACACC, the “PBM E-score” value was 0.085.
For CACCCGAC, the “PBM E-score” value was 0.384.
CTGGCGTC was tested, and the “PBM E-score” value was -0.263.
For AAGCGCCA, the “PBM E-score” value was -0.199.
In the case of CCTTTTCA, the “PBM E-score” value is reported as -0.197.
With ATTCCCTA the “PBM E-score” value was -0.0343.
With AGTCCAAA the “PBM E-score” value was -0.0554.
ATTGTTGC was tested, and the “PBM E-score” value was -0.213.
ACTTCAAT was tested, and the “PBM E-score” value was 0.00032.
With CCAAAACG the “PBM E-score” value was -0.121.
In the case of CCACAGGA, the “PBM E-score” value is reported as -0.0975.
In the case of AAGAGCCC, the “PBM E-score” value is reported as 0.0256.
For TACACCAA, the “PBM E-score” value was -0.076.
AATAGTCT was tested, and the “PBM E-score” value was -0.236.
For AGGCCACT, the “PBM E-score” value was -0.141.
For TCGCAGAA, the “PBM E-score” value was -0.334.
ACAGTTTC was tested, and the “PBM E-score” value was 0.0561.
With ATGTCGGC the “PBM E-score” value was 0.138.
With TACCAAGA the “PBM E-score” value was 0.0915.
With AACTGCCC the “PBM E-score” value was -0.0962.
For CCCCAGCA, the “PBM E-score” value was -0.16.
In the case of GCAGTTGA, the “PBM E-score” value is reported as -0.136.
In the case of ATATCCTA, the “PBM E-score” value is reported as -0.0944.
ACGTGCGG was tested, and the “PBM E-score” value was 0.0609.
CTCTTCTA was tested, and the “PBM E-score” value was -0.188.
In the case of GGATTTAC, the “PBM E-score” value is reported as 0.114.
In the case of CCCCACGG, the “PBM E-score” value is reported as 0.131.
With GAATCTCA the “PBM E-score” value was -0.0758.
CTCAGATC was tested, and the “PBM E-score” value was -0.103.
With GAAGGTAA the “PBM E-score” value was 0.1.
In the case of AGCTACTC, the “PBM E-score” value is reported as -0.104.
GCTACATA was tested, and the “PBM E-score” value was -0.0574.
In the case of CCACGACC, the “PBM E-score” value is reported as -0.272.
For CGGTCATC, the “PBM E-score” value was 0.0638.
In the case of AGCCACTA, the “PBM E-score” value is reported as -0.18.
AAAATGGG was tested, and the “PBM E-score” value was -0.141.
CACATTAC was tested, and the “PBM E-score” value was -0.045.
For AGCTCGGC, the “PBM E-score” value was 0.412.
In the case of CACTATAG, the “PBM E-score” value is reported as -0.239.
In the case of GAGAAGGA, the “PBM E-score” value is reported as -0.0876.
In the case of AGCCTGAT, the “PBM E-score” value is reported as -0.256.
For ATACGCAC, the “PBM E-score” value was 0.0268.
With ATCGTCCA the “PBM E-score” value was -0.0555.
For GGCGTCGA, the “PBM E-score” value was -0.115.
With CCGACCTC the “PBM E-score” value was 0.311.
